Reference: publication PMC12040169 (PLOS Biology, 2025)
The list shows a part of the results.

Tested on: T1, C. trachomatis L2/434/Bu expressing GFP (CTL2-GFP)
T1 construct: L2/434/Bu GFP intracellular growth in HeLa cells
Set-up: species or system HeLa; C. trachomatis total inclusion area by high-content imaging, normalised to DMSO
Conditions: total inclusion area; 28.5 h, 10 µM; inhibitor
In short: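 High-content images of fixed, Hoechst-stained infected cultures supply inclusion area and count (growth) plus nuclei number (viability), complementing bulk GFP/resorufin fluorescence. MIC determination is unchanged from the primary assay.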

| SMILES | % of control remaining |
| --- | --- |
| N#Cc1ccsc1NS(=O)(=O)c1ccc(Cl)c(Cl)c1 [CBK034735] | 101.423 |
| N#CCCN(C(=O)NCc1ccc(Cl)c(Cl)c1)C1CCCCC1 [CBK156349] | 88.7123 |
| CC(Cn1cncn1)NC(=O)c1cccc(S(=O)(=O)NC2CCCC2)c1 (stereo not shown) [CBK304209] | 53.079 |
| Cc1ccnc(N2CCOC3(CCCC3)C2)n1 [CBK304794] | 34.6948 |
| O=[N+]([O-])c1ccc(Oc2cccc3cccnc23)c(F)c1 [CBK002750] | 52.1768 |
| CC(=O)N1CCN2C(=O)c3cc(-c4ccc5c(c4)OCO5)ccc3NC(=O)[C@H]2C1 [CBK289597] | 114.861 |
| Cc1ccc(S(=O)(=O)N2CCN(C(=O)CSc3nnc4sc5ccccc5n34)CC2)cc1 [CBK265961] | 94.5365 |
| CC(C)c1ccc(N2C(=O)[C@@H]3C[C@@H](NC(=O)c4ccnc(Cl)c4)CCN3C2=O)cc1 [CBK289544] | 100.728 |
| Cc1oc(CSCc2cc(C(=O)O)c(C)o2)cc1C(=O)O [CBK264291] | 110.182 |
| c1ccc2oc(CN3Cc4nc[nH]c4C[C@H]3c3nc(-c4ccc5c(c4)OCO5)no3)cc2c1 [CBK288998] | 87.3378 |
| O=C(Nc1cccc2c(NC(=O)C3CC3c3ccccc3)cccc12)C1CC1c1ccccc1 (stereo not shown) [CBK260911] | 91.3975 |
| Cc1[nH]c(=O)[nH]c(=S)c1C(=O)NCc1cccc(Cl)c1C [CBK115493] | 77.8116 |
| CCN(CC)C(=O)c1ccc(NS(=O)(=O)c2ccc(-c3ccccc3)cc2)cc1 [CBK034395] | 94.1915 |
| c1ccc2c(c1)nc(-c1cscn1)n2CCCCc1nnn[nH]1 [CBK267110] | 109.543 |
| COC[C@H]1CCCN1C(=O)CC[C@H]1CNC(=O)[C@@H]2[C@@H](CCN2C2CCOCC2)N1C [CBK289037] | 113.944 |
| COc1ccccc1-c1nccnc1OC(c1ccccc1)c1ccccc1 [CBK106813] | 94.4102 |
| CS(=O)(=O)Nc1nccnc1N1CCN(Cc2ccc(Cl)c(Cl)c2)CC1 [CBK084267] | 56.2801 |
| Cc1nc(C2CCN(C(=O)c3ccccn3)CC2)c2sccn12 [CBK282238] | 111.227 |
| COc1ccc(CN(Cc2cccs2)[C@@H]2COC[C@H]2c2ccc(F)cc2)cc1 [CBK286487] | 66.4397 |
| CCN(CC1CCN(C)C1)C(=O)c1cc(COc2cccc(F)c2)[nH]n1 (stereo not shown) [CBK307239] | 86.0106 |

| SMILES | % of control remaining |
| --- | --- |
| CCOc1ccc(C(=O)Nc2ccc(Cc3ccncc3)cc2)cc1[N+](=O)[O-] [CBK262867] | 103.971 |
| CCC(C)CC(=O)NS(=O)(=O)c1cc(C#N)ccc1C (stereo not shown) [CBK306487] | 40.0034 |
| O=C(O)CCC(=O)Nc1nc(-c2ccc(Cl)cc2)cs1 [CBK299829] | 108.053 |
| Cc1ccc(C(=O)NCCN2CCOCC2)cc1S(=O)(=O)N1CCCCC1 [CBK267329] | 98.846 |
| O=C(NCc1ccco1)c1c(NC(=O)C2CCCO2)sc2c1CCC2 (stereo not shown) [CBK268180] | 101.829 |
| C/C=C/c1ccc(OCCCSc2ccc(Cl)cc2)c(OC)c1 [CBK264147] | 118.873 |
| FC(F)(F)Sc1ccc(COc2cccc3cccnc23)cc1 [CBK002776] | 91.6332 |
| COc1ccc(NC(=O)COc2noc3nc(C)c(C)c(C)c23)cc1OC [CBK269526] | 98.5227 |
| c1ccc(CC2CCN(CCC(c3ccccc3)c3ccccc3)CC2)cc1 [CBK126389] | 44.7615 |
| O=C(COc1cccnc1)N1CCN(C(=O)c2ccco2)CC1 [CBK144482] | 114.144 |
| COc1ccc2c(c1)OC1(CCN(C(=O)c3ccc(C(C)=O)cc3)CC1)CC2=O [CBK156457] | 87.2602 |
| CC(C)c1nc(CCNC(=O)C2(Cn3ccnc3)CC2)no1 [CBK306828] | 82.7509 |
| COc1ccc(CC(=O)N2CCCC2c2cccc(Cc3ccc(F)cc3)n2)cc1 (stereo not shown) [CBK286233] | 126.715 |
| Cc1cc(S)c2cc(Br)ccc2n1 [CBK288445] | 111.006 |
| O=C(Nc1cccc(-c2noc(Cc3ccccc3)n2)c1)c1cccs1 [CBK270244] | 60.8672 |
| O=C1N=C(NC2CCCCCC2)SC1Cc1nc2ccccc2[nH]1 (stereo not shown) [CBK066789] | 24.3223 |
| CC(=O)Nc1ccc(NC(=O)C2C3CCC(C3)C2C(=O)O)cc1 (stereo not shown) [CBK263534] | 108.793 |
| N=c1c2c3c(sc2ncn1CCCn1ccnc1)CCCC3 [CBK264211] | 128.013 |
| CCOc1ccc(NCCCCO)cc1 [CBK264386] | 102.955 |
| C[C@]1(CO)[C@H]2Cc3sc(-c4ccccc4)nc3[C@@H](CC(=O)O)[C@]2(C)CC[C@H]1O [CBK289572] | 92.135 |
